Drawing on the antibiotic and cytotoxicity screens of Wong et al. (2023), this text covers cytotoxicity call and growth inhibition call for 10 molecules.

Structures are written as SMILES. Some of the results follow.

Test [1] concerns HSkMC (human skeletal muscle cells). The test is described as follows: cytotoxicity call (relative viability < 0.9). To be noted: 10 µM.
The test system of test [2] is HepG2. The test is described as follows: cytotoxicity call (relative viability < 0.9). To be noted: 10 µM.
Test [3] deals with S. aureus RN4220. The test is described as follows: growth inhibition call (relative growth <= 0.2). To be noted: 50 µM.

For the molecule `C[C@@H]1CCCCO[C@H](CN(C)C(=O)Nc2cccc3ccccc23)[C@H](C)CN([C@@H](C)CO)C(=O)c2cc(NC(=O)Nc3ccc(C(F)(F)F)cc3)ccc2O1`, in test [1], the cytotoxicity call was “inactive”. The cytotoxicity call in test [2] is “active”. The growth inhibition call in test [3] was “inactive”.

Turning to `C[C@@H]1CCCCO[C@H](CN(C)S(=O)(=O)c2ccc(F)cc2)[C@H](C)CN([C@@H](C)CO)C(=O)c2cc(NC(=O)Nc3ccc(F)cc3)ccc2O1`, the cytotoxicity call in test [1] and in test [2] was “inactive” throughout. Further, in test [3], the growth inhibition call is “inactive”.

As to `C[C@@H]1CCCCO[C@H](CN(C)C(=O)Nc2ccc(F)cc2)[C@@H](C)CN([C@H](C)CO)C(=O)c2cc(NC(=O)Nc3ccccc3)ccc2O1`, the cytotoxicity call in test [1] and in test [2] was “inactive” each time. Further, the growth inhibition call in test [3] is “inactive”.

With `O=C(Cn1cc([N+](=O)[O-])cn1)n1cccn1`, the cytotoxicity call in test [1] and in test [2] was “inactive” each time. For the same molecule, the growth inhibition call in test [3] was “inactive”.

On to `Cc1noc(C)c1S(=O)(=O)Nc1ccc2c(c1)C(=O)N([C@H](C)CO)C[C@H](C)[C@@H](CN(C)CC1CCCCC1)OCCCC[C@H](C)O2`, for which the cytotoxicity call in test [1] and in test [2] was “inactive” each time. Also, the growth inhibition call in test [3] was “inactive”.

Take `Cc1ccc(S(=O)(=O)Nc2ccc3c(c2)C(=O)N([C@@H](C)CO)C[C@@H](C)[C@H](CN(C)Cc2ccncc2)OCCCC[C@@H](C)O3)cc1`: the cytotoxicity call in test [1] and in test [2] was “inactive” each time. In addition, the growth inhibition call in test [3] was “inactive”.

With `NCc1cccc(-c2nccs2)c1`, the cytotoxicity call in test [1] and in test [2] was “inactive” each time. Further, in test [3], the growth inhibition call was “inactive”.

On to `COc1ccc(NC(=O)Nc2cccc3c2O[C@@H](CN(C)S(C)(=O)=O)[C@H](C)CN([C@@H](C)CO)C3=O)cc1`, for which the cytotoxicity call in test [1] and in test [2] was “inactive” in each case. In test [3], the growth inhibition call was “inactive”.

As to `O=CN1CCN(C(=O)c2ccccc2)CC1`, the cytotoxicity call in test [1] and in test [2] was “inactive” in each case. Also, in test [3], the growth inhibition call was “inactive”.

On to `C[C@@H]1CN([C@@H](C)CO)C(=O)Cc2cc(NC(=O)Cn3cnnn3)ccc2O[C@@H]1CN(C)C(=O)Nc1ccccc1`, for which the cytotoxicity call in test [1] and in test [2] was “inactive” in each case. In addition, in test [3], the growth inhibition call was “inactive”.
